Screen size: about 45,000 compounds; about 200 (0.44%) were called active. The shares of active, inactive and inconclusive entries below differ from those in the screen. Calls come from the whole dose curve; as a rule, active = well fitted activation curve with a large enough effect; inconclusive = small, poorly fitted or top-dose-only effect; inactive = no such curve, though single readings can be large or run the other way. A potency beside an inconclusive call is a rough fit, not a confirmed value.
Experiment: qHTS of TDP-43 Inhibitors: NCGC Sytravon Library Screen; note: nearly all actives have a fitted effect of over 55% in size; for growth rescue (activation): 0% is about no effect
Conditions: yeast TDP-43 toxicity rescue, BacTiter-Glo growth, 24 h; growth rescue (activation): at 46.1 µM (top of the series)
Procedure, shortened: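 TDP-43-expressing yeast, pregrown in raffinose, seeded at OD600 0.02 in galactose medium with compound for 24 hr at 30 deg C. Growth read by BacTiter-Glo luminescence, so rescue of toxicity appears as activation.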
Potency is the fitted concentration of half-maximal effect; tags give direction and shape of the fitted curve.

| SMILES | Potency | growth rescue (activation) |
| --- | --- | --- |
| CC1CN(C(=S)SCC(=O)c2ccccc2)CC(C)O1 (centres undefined) | inactive |  |
| O=C(Nc1ccccc1Cl)c1cc(C2CCCN(C(=O)c3ccc4c(c3)CCO4)C2)on1 (centres undefined) |  | inconclusive: 34.1% [activator] |
| Clc1ccc(Sc2cnc3ccccc3n2)cc1 | inconclusive: 12.6 µM [activator, partial curve] |  |
| O=C(NCC1CCCO1)c1cccc(Oc2ccc([N+](=O)[O-])cc2Cl)c1 (centres undefined) | inconclusive: 22.4 µM [activator, single point] |  |
| COc1cc(/C=C2/CCCC(C(=O)C(F)(F)F)=C2O)ccc1O | inconclusive: 35.5 µM [activator, single point] |  |
| O=C(O)c1cc([N+](=O)[O-])ccc1N1CCC(Cc2ccccc2)CC1 | inconclusive: 17.8 µM [activator, single point] |  |
| O=C(c1cc(COc2c(F)cccc2F)on1)N1CCSCC1 | inconclusive: 12.6 µM [activator, partial curve, poor fit] |  |
| CC1CCN(C(=O)COC(=O)c2ccccc2NC(=O)c2ccco2)CC1 | inconclusive: 15.8 µM [activator, single point] |  |
| CC(CCc1ccccc1)N(C)CC(O)c1cccc([N+](=O)[O-])c1 (centres undefined) | inactive |  |
| COc1ccccc1N(CC(=O)N/N=C/c1ccccc1C(=O)O)S(C)(=O)=O |  | inconclusive: -32.3% [activator] |
| O=C(NCc1cccs1)C1Cc2c(-c3ccc(Cl)cc3)ccnc2O1 (centres undefined) | inconclusive: 15.8 µM [activator, single point] |  |
| COc1ccc(CC(=O)OCC(=O)c2ccc(F)cc2)cc1 | inconclusive: 15.8 µM [activator, partial curve, poor fit] |  |
| COc1ccc(S(=O)(=O)NC(=O)C2(C)CCN2C(=O)c2cccc(F)c2)cc1 (centres undefined) | inactive |  |
| Cc1ccc(-c2nc(C)sc2CC(=O)Nc2cccc(C)c2C)cc1 | inconclusive: 35.5 µM [activator, single point] |  |
| Cc1cccc(Cn2c(=O)n(CCC(=O)NCc3ccc4c(c3)OCO4)c(=O)c3sccc32)c1 | inactive |  |
| Cc1ccc(C)n1-c1nnc(N2CCC(C(=O)Nc3ccccc3Br)CC2)s1 | inconclusive: 20 µM [activator, single point] |  |
| O=C(N/N=C/C(Br)=C/c1ccccc1)c1cccnc1 | inconclusive: 17.8 µM [activator, single point] |  |
| COc1ccc2c(c1)Cc1sc(NC(=O)c3ccccc3Br)nc1-2 | inconclusive: 14.1 µM [activator, partial curve, poor fit] |  |
| COc1cc(OC)cc(C2=NCCN2)c1 | inactive |  |
| CN(c1ccccc1)S(=O)(=O)c1cccc(NC(=O)c2ccc3ncsc3c2)c1 | inconclusive: 35.5 µM [activator, single point] |  |
| Cc1ccsc1/C=N/Nc1ccc(F)cc1F | inconclusive: 10 µM [activator, partial curve] |  |
| O=C(Nc1ccc(F)c(F)c1)c1ccccc1-c1ccccc1 | inconclusive: 10 µM [activator, partial curve, poor fit] |  |
| COc1ccc(-c2cc(NC=O)c3ncc(-c4cccc(C(F)(F)F)c4)n3c2)c(OC)c1 |  | inconclusive: 75.8% [activator] |

| SMILES | Potency | growth rescue (activation) |
| --- | --- | --- |
| Cc1sc2nc(CSc3ccccc3)nc(N3CCOCC3)c2c1C | inconclusive: 35.5 µM [activator, single point] |  |
| Cc1cc(Br)ccc1SCC(=O)Nc1cccnc1 | inconclusive: 31.6 µM [activator, partial curve, poor fit] |  |
| COC(=O)c1cc(NC(=O)c2cccc([N+](=O)[O-])c2C)ccc1Cl | inactive |  |
| Cc1c(C(=O)NCCSc2ccc(Cl)cc2)cccc1[N+](=O)[O-] | inconclusive: 10 µM [activator, partial curve, poor fit] |  |
| Cc1cc(C)nc(NC(=O)c2ccc(Cl)cc2[N+](=O)[O-])c1 | inconclusive: 20 µM [activator, partial curve, poor fit] |  |
| CCOC(=O)N1CCC(NC(=O)C2CCN(C(=O)c3cc4sccc4n3CC)CC2)CC1 | inconclusive: 14.1 µM [activator, partial curve, poor fit] |  |
| CC1CN(C(=O)c2ccc(Oc3ccccc3)cc2)CC(C)O1 (centres undefined) | inconclusive: 8.91 µM [activator, partial curve, poor fit] |  |
| O=[N+]([O-])c1cccc(CSc2ncnc3ccccc23)c1 | inconclusive: 11.2 µM [activator, partial curve, poor fit] |  |
| CC(=O)c1ccccc1NC(=O)CN1C(=O)NC2(CCCCCCC2)C1=O | inactive |  |
| CN1N=C(c2ccc(Cl)cc2)CC(c2ccc(Cl)cc2)C1=O (centres undefined) | inconclusive: 14.1 µM [activator, single point] |  |
| COc1ccc(C(C)(NC(C)=O)c2nc(-c3ccncc3)cs2)cc1 (centres undefined) | inactive |  |
| O=C(Nc1ccccc1)c1cccnc1NCCc1ccccc1 | inconclusive: 35.5 µM [activator, single point] |  |
| Cc1ccc(Nc2ccc(S(=O)(=O)N3CCOCC3)cc2[N+](=O)[O-])c(C)c1 | inconclusive: 14.1 µM [activator, partial curve, poor fit] |  |
| CN(C)c1ccc(-c2csc(C(C)(O)c3cccc(F)c3)n2)cc1 (centres undefined) |  | inconclusive: 81% [activator] |
| O=C(COC(=O)c1c2c(nc3ccccc13)CCCC2)c1ccc(Br)s1 | inconclusive: 35.5 µM [activator, single point] |  |
| CC1CC(C)CN(C(=O)C(NS(=O)(=O)c2ccc(Br)s2)c2ccccc2)C1 (centres undefined) | inconclusive: 22.4 µM [activator, partial curve, poor fit] |  |
| CCOc1ccc(S(=O)(=O)N2CCN(c3ccccc3F)CC2)c2cccnc12 | inconclusive: 12.6 µM [activator, partial curve, poor fit] |  |
| COc1cccc(C(O)c2nc(-c3ccncc3)cs2)c1 (centres undefined) | inactive |  |
| O=C(CCS(=O)(=O)c1ccccc1)Nc1ccc(S(=O)(=O)Nc2nccs2)cc1 | inactive |  |
| C/C=C/c1ccc(OCCOc2cccc3cccnc23)c(OC)c1 | inconclusive: 12.6 µM [activator, single point] |  |
| CC(=O)Nc1ccc(-c2ccnc3c2CC(C)(C(=O)Nc2ccc(Cl)cc2)O3)cc1 (centres undefined) | inconclusive: 22.4 µM [activator, single point] |  |
| CC1CCCCC1NC(=O)c1cc2ccccc2o1 (centres undefined) | inconclusive: 20 µM [activator, single point] |  |
| Cc1ccccc1Nc1nc(N)nc(COC(=O)C2CCCCC2)n1 | inconclusive: 11.2 µM [activator, partial curve, poor fit] |  |

| SMILES | Potency | growth rescue (activation) |
| --- | --- | --- |
| CC1CC(=O)N(C)c2cc([N+](=O)[O-])ccc2N1 (centres undefined) | inactive |  |
| COc1cc(NC(=O)c2ncn(-c3ccccc3)n2)cc(OC)c1 | inconclusive: 11.2 µM [activator, partial curve] |  |
| O=C(/C=C/c1ccccc1F)c1ccoc1 | inconclusive: 12.6 µM [activator, single point] |  |
| Cc1cc2c(cc3c(SCc4nc(-c5ccccc5)oc4C)nnc(C)n32)o1 | inconclusive: 14.1 µM [activator, single point] |  |
| COc1ccc(/C=C(/NC(=O)c2ccco2)C(=O)N2CCCC2=O)cc1 | inactive |  |
| CCOC(=O)C(=NC(C)CC)NNc1ccc(Br)cc1 (centres undefined) | inconclusive: 3.98 µM [activator, full curve] |  |
| CC(C)NC(=S)NC(=O)c1ccc(-c2ccccc2)cc1 | inconclusive: 20 µM [activator, single point] |  |
| COc1ccc2c(c1)[nH]c1c(Cl)ncnc12 | active: 14.1 µM |  |
| Cc1nc(SCC(=O)Nc2ccccc2F)[nH]c(=O)c1Cc1ccccc1 | inactive |  |
| CCOc1ccc(-c2cc(NC(=O)c3c(F)cccc3F)c(C(=O)O)s2)cc1 | inactive |  |
| CC1(C(=O)NS(=O)(=O)c2cccs2)CCN1C(=O)CCc1ccc(Cl)cc1Cl (centres undefined) | inactive |  |
| O=C(CCCn1c(=O)oc2ccccc21)N1CCN(c2ccc(F)cc2)CC1 | inconclusive: 12.6 µM [activator, single point] |  |
| CC(O)(c1cccc(F)c1)c1nc(-c2ccncc2)cs1 (centres undefined) | inactive |  |
| Cc1ccc(C)c(CN2C(=O)c3ccccc3S(=O)(=O)c3ccc(C(=O)NCc4ccccc4)cc32)c1 | inactive |  |
| NNC(=O)c1ccc(CSc2nc3ccccc3s2)cc1 | inconclusive: 12.6 µM [activator, partial curve, poor fit] |  |
| O=S(=O)(NC1CCCCCC1)c1cccc(Cl)c1 |  | inconclusive: 34.5% [activator] |
| CCOC(=O)c1c(N2C(=O)CC(Sc3ccccc3C(=O)O)C2=O)sc2c1CCCC2 (centres undefined) | inconclusive: 35.5 µM [activator, single point] |  |
| COc1ccccc1N(C)S(=O)(=O)c1ccc(C(=O)NCCc2ccc(F)cc2)cc1 | inconclusive: 17.8 µM [activator, single point] |  |
| COc1ccc(-n2nc([N+](=O)[O-])c(=NCCc3cccc(C)c3)n2O)cc1 | active: 12.6 µM |  |
| CC(C)(C)C(=O)Nc1nc(-c2ccc3c(c2)OCO3)cs1 | inconclusive: 17.8 µM [activator, partial curve, poor fit] |  |
| O=C(c1cc2cc([N+](=O)[O-])ccc2oc1=O)n1cccn1 | inconclusive: 35.5 µM [activator, single point] |  |
| CCOC(=O)C1CCN(c2ncnc3c2oc2ccc(Cl)cc23)CC1 | inconclusive: 31.6 µM [activator, single point] |  |
| COc1cccc(C(=O)NC(=S)Nc2ccccc2N2CCCC2)c1 | inconclusive: 22.4 µM [activator, single point] |  |

— PubChem BioAssay AID1347073 (National Center for Advancing Translational Sciences (NCATS), 2019)
